Test system: SH-SKN cell lines
Settings: 10 µM; for activity of enhancing mitochondrial respiration: Table 2

| Compound | basal respiratory rate (normal cells (control)) | maximum respiratory rate (normal cells (control)) | activity of enhancing mitochondrial respiration |
| --- | --- | --- | --- |
| Nc1nc(N2CCN(C(=O)[C@H]3CCCO3)CC2)cc2cc3c(cc12)OCC3 [Compound T6] | activated | activated |  |
| Nc1nc(N2CCN(C(=O)[C@H]3CCCO3)CC2)cc2cc3c(cc12)OCCO3 [Compound T10] |  |  | no activity of activating mitochondrion |
| Nc1nc(N2CCN(C(=O)c3ccco3)CC2)cc2cc3c(cc12)OCO3 [Compound T11] |  |  | no activity of activating mitochondrion |
| COc1cc2nc(N3CCN(C(=O)C4CCCO4)CC3)nc(N)c2cc1OC (centres unmarked) [Terazosin, terazosin, reference compound] |  |  | exhibited the activity of enhancing mitochondrial respiration |
